# Some of the results follow.
# B1: Flo5 (Saccharomyces cerevisiae), P38894 (protein)
# chain: MGSSHHHHHHSSGLVPRGSHMSGATEACLPAGQRKSGMNINFYQYSLKDSSTYSNAAYMAYGYASKTKLGSVGGQTDISIDYNIPCVSSSGTFPCPQEDSYGNWGCKGMGACSNSQGIAYWSTDLFGFYTTPTNVTLEMTGYFLPPQTGSYTFSFATVDDSAILSVGGSIAFECCAQEQPPITSTNFTINGIKPWDGSLPDNITGTVYMYAGYYYPLKVVYSNAVSWGTLPISVELPDGTTVSDNFEGYVYSFDDDLSQSNCTIPDPSIH
# How the values were obtained:
# Assay in all cases: glycan array binding signal (z-score within array); higher = stronger binding
# Conditions in all cases: glycan notation: IUPAC condensed, linker removed
# [1] = biological target: Neu5Ac(a2-6)GalNAc
# In short: (§1)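 Glycan array data came from 3228 arrays in the Consortium for Functional Glycomics database, and only arrays with an available protein sequence were kept. Glycan names were put into IUPAC-condensed notation, and columns mapping to the same glycan were averaged. The binding signal is a within-array Z-score, averaged across arrays of one protein sequence run at different concentrations or buffers and across linkers. A negative Z-score can be read as non-binding.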
# [2] = biological target: Neu5Ac(a2-6)GalNAc(b1-4)GlcNAc
# In short: as §1
# [3] = biological target: Neu5Ac(a2-6)GlcNAc(b1-4)GlcNAc
# In short: as §1
# [4] = biological target: Neu5Ac(a2-6)GlcNAc(b1-4)GlcNAc(b1-4)GlcNAc
# In short: as §1
# [5] = biological target: Neu5Ac(a2-8)Neu5Ac
# In short: as §1
# [6] = biological target: Neu5Ac(a2-8)Neu5Ac(a2-3)Gal(b1-4)Glc
# In short: as §1
# [7] = biological target: Neu5Ac(a2-8)Neu5Ac(a2-3)[GalNAc(b1-4)]Gal(b1-4)Glc
# In short: as §1
# [8] = biological target: Neu5Ac(a2-8)Neu5Ac(a2-8)Neu5Ac
# In short: as §1
# [9] = biological target: Neu5Ac(a2-8)Neu5Ac(a2-8)Neu5Ac(a2-3)Gal(b1-4)Glc
# In short: as §1
# [10] = biological target: Neu5Ac(a2-8)Neu5Ac(a2-8)Neu5Ac(a2-3)[GalNAc(b1-4)]Gal(b1-4)Glc
# In short: as §1
# [11] = biological target: Neu5Ac(a2-8)Neu5Ac(a2-8)Neu5Ac(a2-8)Neu5Ac(a2-3)[GalNAc(b1-4)]Gal(b1-4)Glc
# In short: as §1
# [12] = biological target: Neu5Ac(b2-6)Gal(b1-4)GlcNAc
# In short: as §1
# [13] = biological target: Neu5Ac(b2-6)GalNAc
# In short: as §1
# [14] = biological target: Neu5Ac9Ac(a2-3)Gal(b1-3)GlcNAc
# In short: as §1
# [15] = biological target: Neu5Ac9Ac(a2-3)Gal(b1-4)GlcNAc
# In short: as §1
# [16] = biological target: Neu5Ac9Ac(a2-6)Gal(b1-4)GlcNAc
# In short: as §1
# [17] = biological target: Neu5Gc(a2-3)Gal(b1-3)GlcNAc
# In short: as §1
# [18] = biological target: Neu5Gc(a2-3)Gal(b1-3)[Fuc(a1-4)]GlcNAc
# In short: as §1
# [19] = biological target: Neu5Gc(a2-3)Gal(b1-4)Glc
# In short: as §1
# [20] = biological target: Neu5Gc(a2-3)Gal(b1-4)GlcNAc
# In short: as §1
# [21] = biological target: Neu5Gc(a2-3)Gal(b1-4)[Fuc(a1-3)]GlcNAc
# In short: as §1
# [22] = biological target: Neu5Gc(a2-6)Gal(b1-4)GlcNAc
# In short: as §1
# [23] = biological target: Neu5Gc(a2-6)GalNAc
# In short: as §1
# [24] = biological target: Neu5Gc(b2-6)Gal(b1-4)GlcNAc
# In short: as §1
binder,measurement,setting,value
B1,glycan array binding signal (z-score),[1],-0.152
same,glycan array binding signal (z-score),[2],-0.089
same,glycan array binding signal (z-score),[3],-0.135
same,glycan array binding signal (z-score),[4],-0.235
same,glycan array binding signal (z-score),[5],-0.148
same,glycan array binding signal (z-score),[6],-0.171
same,glycan array binding signal (z-score),[7],-0.104
same,glycan array binding signal (z-score),[8],-0.209
same,glycan array binding signal (z-score),[9],-0.125
same,glycan array binding signal (z-score),[10],0.852
same,glycan array binding signal (z-score),[11],-0.149
same,glycan array binding signal (z-score),[12],0.104
same,glycan array binding signal (z-score),[13],-0.154
same,glycan array binding signal (z-score),[14],-0.185
same,glycan array binding signal (z-score),[15],-0.126
same,glycan array binding signal (z-score),[16],-0.036
same,glycan array binding signal (z-score),[17],0.375
same,glycan array binding signal (z-score),[18],-0.16
same,glycan array binding signal (z-score),[19],-0.122
same,glycan array binding signal (z-score),[20],-0.131
same,glycan array binding signal (z-score),[21],-0.116
same,glycan array binding signal (z-score),[22],-0.098
same,glycan array binding signal (z-score),[23],-0.22
same,glycan array binding signal (z-score),[24],-0.005

# Reference: the supplement of paper PMC8728848
